# Results taken from paper PMC6919601, “Identification of Plasmodium dipeptidyl aminopeptidase allosteric inhibitors by high throughput screening” (PLoS ONE, 2019).
# The campaign covered roughly 110,000 compounds. About 230 (0.21%) showed an effect of 50% or more. This is one part of the list.
# Target: DPAP1 (Plasmodium falciparum, UniProt Q8IIJ9)
# Test: primary screen, percent inhibition; read by cleavage of a fluorogenic dipeptide substrate; higher = more effect of the substance
# Design: species or system P. falciparum D10 trophozoite lysates; single well
# 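Further: 30 min substrate incubation versus DMSO and 10 µM JCP410 controls.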
# DPAP1, sequence (Q8IIJ9 whole entry, looked up): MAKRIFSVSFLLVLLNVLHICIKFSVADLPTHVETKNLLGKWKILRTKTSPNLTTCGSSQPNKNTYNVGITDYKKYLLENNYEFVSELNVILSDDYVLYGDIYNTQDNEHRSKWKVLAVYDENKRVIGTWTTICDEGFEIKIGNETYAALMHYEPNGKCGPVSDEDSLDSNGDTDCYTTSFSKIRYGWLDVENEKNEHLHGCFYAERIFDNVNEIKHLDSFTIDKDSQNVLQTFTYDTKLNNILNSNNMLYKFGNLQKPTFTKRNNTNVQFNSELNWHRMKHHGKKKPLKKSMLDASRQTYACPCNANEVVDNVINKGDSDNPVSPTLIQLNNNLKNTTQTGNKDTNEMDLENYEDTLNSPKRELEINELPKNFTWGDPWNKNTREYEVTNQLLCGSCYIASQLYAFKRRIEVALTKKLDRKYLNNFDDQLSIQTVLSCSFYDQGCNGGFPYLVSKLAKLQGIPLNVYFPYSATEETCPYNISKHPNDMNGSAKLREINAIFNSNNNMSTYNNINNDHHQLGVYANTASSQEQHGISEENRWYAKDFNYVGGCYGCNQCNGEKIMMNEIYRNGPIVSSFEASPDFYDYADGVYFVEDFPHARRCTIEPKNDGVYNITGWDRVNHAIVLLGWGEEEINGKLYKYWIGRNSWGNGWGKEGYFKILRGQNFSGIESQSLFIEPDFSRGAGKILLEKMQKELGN
row,SMILES,% Inhibition @ 10 uM [%]
1,COc1cccc(NC(=O)c2ccc(-c3ccccc3)cc2)c1,-9.12
2,C=C(C)CN(CC)C1CCN(C(C)=O)CC1,2.7
3,O=C(O)c1ccc(Br)c(S(=O)(=O)N2CCCCC2)c1,-0.546
4,COc1ccc(N2CCN(C(=O)C(C)N(c3ccccc3)S(C)(=O)=O)CC2)cc1 (centres unmarked),0.131
5,CCOc1ccc(C(=O)Nc2ccccc2Br)cc1,0.13
6,O=C(O)CCCCCn1c(SCC(=O)c2ccc(O)c(O)c2)nc2ccsc2c1=O,4.17
7,COc1cccc(C(=O)Nc2cc3c(cc2C(=O)c2ccccc2Cl)OCCO3)c1,-8.36
8,COc1ccc2nc(NC(=O)CN(C)S(=O)(=O)c3cccc4nsnc34)sc2c1,0.317
9,O=C(c1ccccc1O)N1N=C(c2ccc(Cl)cc2)CC1(O)C(F)(F)F (centres unmarked),-4.16
10,Cc1nn(C)cc1C(=O)Nc1cnn(Cc2ccc(F)cc2)c1,4.31
11,C=CCNC(=O)C1CC(c2ccccc2F)=NO1 (centres unmarked),-5.79
12,CCc1ccc2oc(C(=O)N(Cc3ccccc3F)C3CCS(=O)(=O)C3)c(C)c2c1 (centres unmarked),-5.18
13,Cc1cc(Oc2ccc(-c3ccccc3)cc2)nc(-c2ccccc2)n1,-3.26
14,CC(C)Cc1ccc(-c2[nH]nc3c2C(c2cccnc2)C(C#N)=C(N)O3)cc1 (centres unmarked),-0.68
15,O=C(C1CCC(CNc2c(N3CCCCC3)c(=O)c2=O)CC1)N1CCN(C2CCCCC2)CC1 (centres unmarked),-0.447
16,CCOc1ccc(N2CC(C(=O)Nc3ccc(Br)cc3C)CC2=O)cc1 (centres unmarked),4.05
17,Clc1ccc(C2=NN(c3ccc(Br)cc3)C(c3cccs3)C2)cc1 (centres unmarked),-6.27
18,CCOC(=O)N1CCC(NC2C3CC4CC(C3)CC2C4)CC1 (centres unmarked),-1.75
19,CCc1ccc(OCCCC(=O)Nc2ccccc2OC)cc1,0.13
20,COc1cc(/C=C2\C(=O)NC(=S)N(c3cccc(Cl)c3)C2=O)ccc1O,3.61
21,CCCn1c(=N)c(S(=O)(=O)c2ccc(C)cc2)cc2c(=O)n3cccc(C)c3nc21,-6.92
22,O=C(Nc1nc(-c2ccc(F)cc2)cs1)c1cccnc1,-7.3
23,O=C(NCCc1ccc2c(c1)OCO2)c1ccc(F)cc1,1.96
24,O=c1oc2cc(S(=O)(=O)N3CCCCC3)ccc2c2ccc(S(=O)(=O)N3CCCCC3)cc12,-1.82
25,CC(C)(CO)NCc1cccc(OCc2ccc(Cl)cc2Cl)c1,-8.33
26,N#Cc1sc2nc(-c3ccccc3)c3c(c2c1N)CCCC3,-0.969

row,SMILES,% Inhibition @ 10 uM [%]
1,Cc1nc(C(=O)Nc2ccc(Cl)cc2)c(C(=O)NC(C)C)nc1C,-1.96
2,CCc1ccc(C(C)NC(=O)c2ccc3c(c2)OCO3)cc1 (centres unmarked),-0.63
3,CCOC(=O)c1[nH]c2ccccc2c1NC(=O)C1c2ccccc2OC2C=CC=CC21 (centres unmarked),-0.58
4,Cn1c(-c2ccccc2)nc2c(c1=O)C1(CCCC1)Cc1ccccc1-2,-1.02
5,COc1cc(C2c3c(oc4ccccc4c3=O)C(=O)N2Cc2ccc3c(c2)OCO3)ccc1O (centres unmarked),-1.33
6,Fc1cccc(Cl)c1CNCCCSc1nnnn1-c1ccccc1,0.596
7,CCc1ccc(-c2nc(CN3CCC(C(=O)NCc4ccc(C)cc4)CC3)c(C)o2)cc1,3.99
8,O=C(CCN1C(=O)c2cccc3cccc(c23)C1=O)NCc1cccnc1,8.66
9,COCCNC(=O)C1CC(=O)N(CCc2ccccc2)C1 (centres unmarked),-0.0542
10,COc1ccc(/C=C2\C(=O)NC(=O)N(C)C2=O)c2ccccc12,0.587
11,COc1ccc2[nH]c(SCC(=O)Nc3cc(C)on3)nc2c1,1.72
12,Cc1nn(Cc2ccccc2Cl)c(C)c1NC(=O)c1cc(-c2ccc3c(c2)OCO3)on1,-10.7
13,Cn1c(=O)c2ncn(CC(=O)Nc3cccc(O)c3)c2n(C)c1=O,-1.61
14,CCOc1ccc(CCNC(=O)Cn2nnc(-c3ccc(F)cc3)n2)cc1OCC,2.18
15,COc1cccc(C(=O)N2CCN(C(c3ccccc3)c3ccccc3)CC2)c1,-5.82
16,N#CCc1ccc(NC(=O)c2cccnc2Cl)cc1,2.17
17,CCCNC(=O)/C(=C/c1cn(S(=O)(=O)N(C)C)c2ccccc12)NC(=O)c1ccccc1OC,-0.0235
18,CCOc1ccc(NC(=O)CN(c2c(C)cccc2C)S(C)(=O)=O)cc1,-5.27
19,CC1=C(CCN2CCN(c3cccc(Cl)c3)CC2)C(C)(C)CCC1,-3.5
20,CC1=NN(c2ccccc2)C(=O)/C1=C\c1c(C)nn(-c2ccccc2)c1O,0.162
21,CC(NC(=O)c1cccc2ccccc12)c1ccccc1 (centres unmarked),5.77
22,Cc1cc(C)c(C#N)c(SCc2ccccc2F)n1,40.7
23,CCn1c(NCc2ccc3c(c2)OCO3)nc2ccccc21,-1.88
24,Cc1cc(OCC(=O)N2CCC(C)CC2)ccc1Br,-3.33
25,CCc1nn(-c2cc(Oc3cccc(C)c3)ncn2)c(N)c1C#N,-5.34
26,CN(C)/C=C/C=C1C(=O)CCCC1=O,1.62

row,SMILES,% Inhibition @ 10 uM [%]
1,O=C(O)[C@H]1CCCC[C@H]1C(=O)Nc1ccc(S(=O)(=O)NC2CCCCC2)cc1,-4.31
2,N#Cc1c(SCc2ccccc2)nc2c(c1-c1cccs1)CCCC2,-0.216
3,Cc1nn(CCCC(=O)NCCCc2ccccc2)c(=O)c2cc3sccc3n12,0.137
4,CCOc1ccc(CCNC(=O)CCc2c(C)nc3c(c(C)nn3C(C)(C)C)c2C)cc1OCC,4.54
5,COc1cc(OC)c(OC)cc1/C=C1\N=C(c2ccc(C(C)(C)C)cc2)OC1=O,-9.58
6,CCC(Oc1ccccc1)C(=O)Nc1cccc(C)c1C (centres unmarked),-5.82
7,Cc1cc(-c2ccc(NC(=O)c3ccncc3)c(C)c2)ccc1NC(=O)c1ccncc1,-3.18
8,OCCn1c(-c2ccc(Br)cc2)cn2c3ccccc3nc12,2.78
9,CN1C(=O)c2ccc3c4c(ccc(c24)C1=O)C(=O)N(C)C3=O,-4.82
10,CNc1ncnc(S)c1N,-0.615
11,O=C(NC1(C(F)(F)F)NC(=O)N(Cc2ccccc2)C1=O)c1ccco1 (centres unmarked),-4.41
12,NC(=O)c1ccc(Br)c(S(=O)(=O)N2CCCCC2)c1,2.46
13,Nc1cc(N2CCOCC2)nc(Cl)n1,6.6
14,CC1=C(C(=O)Nc2ccccc2)C(c2ccccc2)n2c(s/c(=C/c3ccco3)c2=O)=N1 (centres unmarked),-4.89
15,COc1ccc(CCNC(C)Cc2ccc(OC)cc2)cc1 (centres unmarked),0.217
16,O=C(O)C(Cc1c[nH]c2ccccc12)Nc1ncnc2c1oc1ccccc12 (centres unmarked),-1.72
17,Cc1oc(-c2ccc(Cl)cc2)cc1-c1nn2c(-c3ccco3)nnc2s1,-1.69
18,CC(=O)Nc1ccc(S(=O)(=O)N(C)c2ccccc2)cc1,5.15
19,CCC1CCCCN1CCCNC(=O)Cn1ccc2cc(S(=O)(=O)N3CCCCC3)ccc21 (centres unmarked),-3.12
20,C=CCN1C(=O)N/C(=C/c2ccc(N3CCOCC3)o2)C1=O,2.19
21,O=C(NCCCN1CCCC1)c1cnn2c(C(F)(F)F)cc(-c3ccccc3)nc12,-4.06
22,Cc1cc(O)n2nc(-c3ccccc3)cc2n1,-5.48
23,CCOc1cc(C(=O)Nc2c(O)oc3ccccc3c2=O)cc(OCC)c1OCC,-5.37
24,Cc1ccc(CN2CCCCCCC2)o1,3.24
25,CC(NC(=O)C1CC(=O)N(c2ccc(Br)cc2)C1)c1ccccc1 (centres unmarked),1.96
26,CCOC(=O)C1=C(CN2CC=C(c3ccccc3)CC2)NC(=O)NC1c1ccc(OC(C)C)cc1 (centres unmarked),-1.03

row,SMILES,% Inhibition @ 10 uM [%]
1,Fc1ccccc1CN1CCN(c2ccc(Cl)cc2)CC1,3.1
2,Fc1cccc(CN2CCN(c3ccccc3)CC2)c1,-3.65
3,FC(F)(F)c1ccccc1CNCc1ccncc1,2.72
4,O=C(Cn1ncc2c3ccccc3n(Cc3cccc(Cl)c3)c2c1=O)NCc1ccccn1,3.4
5,Cc1ccccc1CN1CCN(c2ncccn2)CC1,-1.98
6,OC1CCCN(Cc2cccc(Cl)c2)C1 (centres unmarked),-0.127
7,COc1nc(N2CCCC2)nc(N2CCCC2)n1,-0.424
8,Cc1cc(C)n2nc(N)c([N+](=O)[O-])c2n1,-6.99
9,Cc1nc(SCC(=O)C2CC2)c(C#N)c(C)c1C,0.98
10,COc1ccccc1-c1nc2ccccc2o1,-0.661
11,C[C@]12C[C@H](O)[C@@H]3c4ccc(O)cc4CCC3[C@@H]1CCC2=O (some centres unmarked),-4
12,O=C(O)C1CC=CCC1C(=O)Nc1ccccc1Cl (centres unmarked),-0.185
13,CC1CCCC(C)N1C(=O)Nc1cn(C)c(=O)c2ccccc12 (centres unmarked),3.48
14,Cc1cc(C)c(C)c(S(=O)(=O)Nc2ccc(C(=O)NCc3ccccn3)cc2)c1C,4.11
15,CC(=O)c1cc2c(cc1NC(=O)CCC1CCCC1)OCO2,-8.36
16,CSc1cccc(/N=C2/S/C(=C/c3ccccc3OCC(=O)N3CCOCC3)C(=O)N2C)c1,2.84
17,Cc1ccc(CNC(=O)CC(c2cccs2)N2Cc3ccccc3C2=O)cc1 (centres unmarked),-3.1
18,O=C(COc1ccccc1Cl)N(Cc1cccc(Cl)c1)Cc1ccco1,1.25
19,Cc1nn(Cc2ccc(C(=O)Nc3ccc(C(F)(F)F)cc3)o2)c(C)c1Br,2.44
20,COc1cccc(C(Nc2cc(C)ccn2)c2ccc3ccc(C)nc3c2O)c1 (centres unmarked),-6.94
21,O=C1COc2c1c1c(c3oc(=O)ccc23)C(=O)CO1,4.47
22,c1ccc2c(c1)OCC(c1csc3ncnc(N4CCCC4)c13)O2 (centres unmarked),-5.29
23,COc1ccccc1CN1CC(C)OC(C)C1 (centres unmarked),-2.36
